Measurements from the RNAGym collection of RNA variant scans (doi:10.7554/elife.90254).
Read counts are not given, so values of variants with three or more changes are uncertain.

B1: LINE1-full (parent)
chain: UACGUAGGUGGUUUUCCCCUGAUAGUGCUAAGGGGGCCUGGAAGUUUGGACUGGGCAGAGCUCAACACAGCGUGGCAAAGUGGCUGUGGCUAGACUGCCUCUCUGGAUUCCUCGUCACUCAGCAGGGCAUCUCUGAGAGAAAUGCC

Variants of: B1
Experiment: self-cleavage, relative activity (ratio to wild type); higher = more cleavage; in vitro, sequencing; the parent is a self-cleaving ribozyme

Variant | self-cleavage
G32U U45C U115C A124U | 1.37
G32U U96A A138U | 0.05
G33A A42G A65G G93U U130C | 0.03
G33A A50G A64U | 0.49
G33A A50G A78U U109C | 1.18
G33A A50G U73C A107U | 2.3
G33A A64G C98U U109C | 0.07
G33A A77U A107U | 0.62
G33A C95U A121U A136G | 0.24
G33A G97U A107G | 0.02
G33A U47A U87G | 0.29
G33A U52A C71U A77C U85A | 0.02
G33A U73A A94G | 0.28
G33A U81A U115C | 1.76
G33A U81C U134G | 1.42
G33A U85C A94G A142G | 0
G33A U87C G144U | 0.28
G33C A57G A136G | 0.31
G33C G36A U45A | 0.84
G33C U85C U109C U115C | 0
G33U A43G A50G U112A U130C | 0
G33U A57G C101U A117U A124G | 0.74
G33U A57U A78G A138G | 0.08
G33U A64G A69G | 0.07

Variant | self-cleavage
G33U A77G U81A | 2.61
G33U A77G U102A | 2.15
G33U G35U A67C A94U U96A U143A | 0.03
G33U G60C U81A A141G | 0.02
G33U U39A C133A | 1.07
G33U U45C U109C A121G G127U | 2.6
G33U U47C A94G U104C | 1.1
G33U U87C A142G | 0.2
G33U U96C A121U | 0.1
G33U U100C U104A | 1.43
G33U U100C U108C U130C U134A | 2.09
G34A A42G U102G | 0.82
G34A A50G G54A G106U | 0.07
G34A A50G G58U A129G | 0.06
G34A A57G A79G A138G | 0.76
G34A A64U A124U | 0.21
G34A A77G U109C U112C | 1.64
G34A C37U A67C | 0.07
G34A C99U U132C | 0.38
G34A G48A A136U | 1.02
G34A G49A A77G | 1.27
G34A U45A U134C U143A | 1.47
G34A U46A G49A | 1.28
G34A U47A U73A C84U A124U | 0.07

Variant | self-cleavage
G34A U47A U81A U100C | 2.99
G34A U47C A77G U102C | 1.31
G34A U47C U52A | 1.28
G34A U47C U62A | 0.01
G34A U52C G58U U100C C116U | 0.03
G34A U62C U87A U102C U132A | 0.04
G34A U62G A79G | 0.05
G34A U85A U109A | 0
G34A U96G C146U | 0.05
G34A U100A A117G | 0.47
G34A U102C U119A U143C | 1.39
G34A U108C G114A A138G | 1.66
G34A U109A A140U | 1.36
G34A U119C A129U U143C | 1.33
G34C A79G U96C | 0
G34C G74A A121U | 1.46
G34C G74U U85C U96C A141G | 0.06
G34C U47C C76U | 2.18
G34C U96C U108C | 0
G34U A42G A92G | 0.07
G34U A43G A65G G88A U112C | 0.03
G34U A43G U109C | 1.66
G34U A50G A67G | 0.3
G34U A50G G88U A117G | 0.05

Variant | self-cleavage
G34U A64G A107G | 0.24
G34U A77U C99A C113A U132C | 0.78
G34U A78G U112A | 0.79
G34U C37U A42U | 0.7
G34U G75A A78G G114A | 0.43
G34U U39C U45C G54A U96C A124G | 0
G34U U45C G49A U108C | 2.02
G34U U46C A78G U102C A142G | 1.97
G34U U62A A78U | 0.01
G34U U104C A107C C123U | 2.2
G35A A42G A64G | 0.15
G35A A43G U143C G144A | 0.85
G35A A50G A77G U143C | 0.43
G35A A50G G80A | 0.83
G35A A59C A94U U112G | 0.17
G35A A67G G72A A140G | 0.26
G35A A67G G72A U81C | 0.26
G35A A67G U85A A107G | 0.05
G35A A67U U115C | 0.08
G35A A69G U134A A140G | 0.11
G35A A69U U115C | 0.05
G35A A77G G106U U108C C131U | 1.3
G35A A77U U104A U132C | 0.73
G35A A79G A107C A140G | 0.99

Variant | self-cleavage
G35A A94U G122U | 0.17
G35A C84G U102C A138U C145U | 0.03
G35A C95U U108C A140G | 0.28
G35A G105C U115A | 1.33
G35A U39A U85C C133U | 0.13
G35A U39A U100C | 1.35
G35A U39A U115C | 1.2
G35A U39C A117G G125U | 1.12
G35A U39C U91C | 0.35
G35A U39G U104A U112A C123U A136G | 1.2
G35A U45A G70U U87A | 0.01
G35A U46A U132A | 1.03
G35A U46C U100C | 0.94
G35A U47A A59U A77G | 1.06
G35A U47A U73A U96C | 0.03
G35A U47C U102C U104A A140G | 2
G35A U52A A77U U112A A129U | 1.14
G35A U62A A77G U81C | 0.04
G35A U62C A140G | 0.02
G35A U62C U108A A138U | 0.02
G35A U62C U119C | 0.1
G35A U73A A77C U102C | 1.01
G35A U81A A140G | 1.51
G35A U81A U102A | 1.59

Variant | self-cleavage
G35A U81C A121U | 1.12
G35A U108C U130C | 1.13
G35U A57G A59U | 0.54
G35U A64G U85C A92U | 0.13
G35U A65G A124G | 0.03
G35U A117G A142G | 1.46
G35U C37U U39C A140G | 0.77
G35U G40A U104A U112C U134C A142G | 0.61
G35U G44A U47C A94U A136U | 0.23
G35U G49A U81A | 1.06
G35U G86A A94G U104C U109C | 0.11
G35U U46A A69G U132C | 0.34
G35U U81C U143A | 1.57
G35U U87A A117C | 0.04
G36A A50G G58U | 0.02
G36A A50U U96G | 0.05
G36A A65U U108C | 0.24
G36A A67U U109C | 0.07
G36A A69G A121U | 0
G36A A77G A129G | 2.3
G36A A77U U115C A117U A124U | 1.21
G36A A117U A138G | 1.89
G36A C38U A78G G139A | 1.23
G36A G54U U119A | 0.69

Variant | self-cleavage
G36A G60U U85A C113U A140G | 0.01
G36A U39A A42G A64G | 0.13
G36A U39A U85G A124G U132C | 0.02
G36A U45C A69G U102C | 1.84
G36A U45G U96A C123U | 0.04
G36A U47C U73C G125A | 2.27
G36A U52A A59G A67U A117U | 0.04
G36A U52C U73A A92G | 0.35
G36A U62A A65U U104C | 0.06
G36A U73A A107U | 1.44
G36A U73C G93U | 0.03
G36A U73C U85C | 0.05
G36A U102C A121U | 1.35
G36C A42C A79G | 1.38
G36C A42G A59U | 0.84
G36C A43U A57G A136U | 0.57
G36C A121G U130C | 1.21
G36C C66A U73C A77G | 0.04
G36C U45C A57U G72A A78G | 0.02
G36C U45C A117U | 1.11
G36C U85C U102C | 0
G36U A43G U143C | 0.32
G36U A50G A67G | 0.19
